# The supplement of paper PMC9135407
# Values joined by “and” are separate entries in the source; they are usually repeats but may differ in a detail not shown here. Equal values may be shown once. Where a name gives a salt, the structure may show the parent alone. Among all 5,800 compounds or so, about 620 (11%) showed activity.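 The calls were made as follows: active = score above a cut-off or among the top three wells of a plate; in these data no inactive exceeds 0.85.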 Only a part is listed here, and it is no random draw.
# Test system: primary human hepatic stellate cells (donor 1)
# Assay: scaled lipid accumulation score (0 = DMSO-like, 1 = nortriptyline-like); higher = stronger HSC inactivation (lipid re-accumulation), active = hit call of the paper
# Details: 48 h
# [1] = library stock concentration: 80 uM
# [2] = library stock concentration: 400 uM
# [3] = library stock concentration: 2 mM
# [4] = library stock concentration: 3.33 mM
# [5] = library stock concentration: 10 mM
# [6] = library stock concentration: 1 mM
compound,measurement,setting,value
O=C(Nc1ccc(OC(F)(F)F)cc1)c1sccc1NCc1ccnc2ccccc12,scaled lipid accumulation score,[1],inactive: 0.018
same,scaled lipid accumulation score,[2],inactive: 0.035
same,scaled lipid accumulation score,[3],inactive: ≤ -0.009
same,scaled lipid accumulation score,[4],inactive: ≤ 0
same,scaled lipid accumulation score,[5],inactive: ≤ 0 and inactive: ≤ -0.004
COc1cc(/C=C/C(=O)N2CCN(CC(=O)N3CCCC3)CC2)cc(OC)c1OC [Cinepazide maleate],scaled lipid accumulation score,[4],inactive: 0.048
same,scaled lipid accumulation score,[5],inactive: ≤ 0
Cc1c(-c2ccnn2C)cc(C(=O)NCc2ccc(S(C)(=O)=O)cn2)c(=O)n1-c1cccc(C(F)(F)F)c1 [Alvelestat (AZD9668)],scaled lipid accumulation score,[4],inactive: ≤ -0.009
same,scaled lipid accumulation score,[5],inactive: 0.21
CC(=O)c1ccc(S(=O)(=O)NC(=O)NC2CCCCC2)cc1 [Acetohexamide],scaled lipid accumulation score,,inactive: ≤ 0
same,scaled lipid accumulation score,library stock concentration: 6.2 mM,inactive: ≤ 0
same,scaled lipid accumulation score,[5],inactive: 0.116
CCSC(=N)N [S-ethyl Isothiourea (hydrobromide)],scaled lipid accumulation score,[6],inactive: 0.007
CCSC(=N)N [S-Ethylisothiourea hydrobromide],scaled lipid accumulation score,[5],inactive: 0.211
CCSC(=N)N [EIT hydrobromide],scaled lipid accumulation score,[5],inactive: ≤ 0
O=C(O)CCC/C=C\C[C@@H]1[C@@H](/C=C/[C@@H](O)C2CCCCC2)[C@H](O)C[C@@H]1O [15-cyclohexyl pentanor Prostaglandin F2.alpha.],scaled lipid accumulation score,[6],inactive: ≤ 0
CCCCC[C@H](O)/C=C/[C@@H]1[C@@H](C/C=C\CCCC(=O)O)[C@@H](O)C[C@H]1O [Prostaglandin F2.alpha. (tromethamine salt)],scaled lipid accumulation score,[6],inactive: ≤ 0
CCCCC[C@H](O)/C=C/[C@@H]1[C@@H](C/C=C\CCCC(=O)O)[C@@H](O)C[C@H]1O [Prostaglandin F2a],scaled lipid accumulation score,[6],inactive: ≤ -0.021
CCCCC[C@H](O)/C=C/[C@@H]1[C@@H](C/C=C\CCCC(=O)O)[C@@H](O)C[C@H]1O [Prostaglandin F2.alpha.],scaled lipid accumulation score,[6],inactive: ≤ 0
CCCCC[C@H](O)/C=C/[C@@H]1[C@@H](C/C=C\CCCC(=O)O)[C@@H](O)C[C@H]1O [Dinoprost trometamol],scaled lipid accumulation score,,inactive: 0.001
CCOC(=O)c1ccc(OC(=O)CCCCCNC(=N)N)cc1 [Gabexate mesylate],scaled lipid accumulation score,[5],inactive: ≤ -0.006
CCOC(=O)c1ccc(OC(=O)CCCCCNC(=N)N)cc1,scaled lipid accumulation score,[5],inactive: ≤ 0
CCOC(=O)c1ccc(OC(=O)CCCCCNC(=N)N)cc1 [Gabexate mesilate],scaled lipid accumulation score,,inactive: ≤ 0
CSc1nc(NC2CCCC2)c([N+](=O)[O-])c(NC2CCCC2)n1,scaled lipid accumulation score,[5],inactive: ≤ -0.001
CCC(=O)N1CCN(C(=O)c2ccccc2)CC1,scaled lipid accumulation score,[5],inactive: 0.027
O=C(NC1CCN(CCCCC2(C(=O)NCC(F)(F)F)c3ccccc3-c3ccccc32)CC1)c1ccccc1-c1ccc(C(F)(F)F)cc1 [Lomitapide],scaled lipid accumulation score,[5],inactive: ≤ 0
OC[C@H]1O[C@H]([S-])[C@H](O)[C@@H](O)[C@@H]1O.[Au+] [Aurothioglucose],scaled lipid accumulation score,library stock concentration: 5.1 mM,inactive: 0.336
same,scaled lipid accumulation score,[5],inactive: 0.397
CCCN[C@H]1CCc2nc(N)sc2C1 [Pramipexole],scaled lipid accumulation score,[4],inactive: ≤ 0
same,scaled lipid accumulation score,library stock concentration: 9.5 mM,inactive: ≤ 0
same,scaled lipid accumulation score,[5],inactive: ≤ 0
CCCN[C@H]1CCc2nc(N)sc2C1,scaled lipid accumulation score,[5],inactive: ≤ 0
Cc1cc(=O)oc2cc(O)ccc12,scaled lipid accumulation score,[5],inactive: ≤ 0
Cc1cc(=O)oc2cc(O)ccc12 [4-Methylumbelliferone (4-MU)],scaled lipid accumulation score,[4],inactive: ≤ 0
same,scaled lipid accumulation score,[5],inactive: ≤ 0
Cc1cc(=O)oc2cc(O)ccc12 [Hymecromone],scaled lipid accumulation score,,inactive: ≤ 0
CNC(=O)c1cc2c(cn1)[nH]c1ccccc12,scaled lipid accumulation score,[5],inactive: 0.022
CNC(=O)c1cc2c(cn1)[nH]c1ccccc12 [N-Methyl-beta-carboline-3-carboxamide],scaled lipid accumulation score,[5],inactive: 0.359
OCCCNc1cc(-c2ccnc(Nc3cccc(Cl)c3)n2)ccn1,scaled lipid accumulation score,[1],inactive: 0.137
same,scaled lipid accumulation score,[2],inactive: 0.324
same,scaled lipid accumulation score,[3],inactive: 0.587
O=c1ncccn1[C@@H]1O[C@H](CO)[C@@H](O)[C@H]1O [Zebularine],scaled lipid accumulation score,[4],inactive: ≤ -0.009
same,scaled lipid accumulation score,[5],inactive: ≤ 0 and inactive: ≤ -0.001
O=C(CCCCCCNC(=O)c1cnc(N(c2ccccc2)c2ccccc2)nc1)NO [Rocilinostat],scaled lipid accumulation score,[1],inactive: ≤ 0
same,scaled lipid accumulation score,[2],inactive: ≤ 0
same,scaled lipid accumulation score,[3],inactive: ≤ 0
same,scaled lipid accumulation score,[5],inactive: 0.052
O=C(CCCCCCNC(=O)c1cnc(N(c2ccccc2)c2ccccc2)nc1)NO [Rocilinostat (ACY-1215)],scaled lipid accumulation score,[4],inactive: 0.005
same,scaled lipid accumulation score,[5],inactive: 0.688
CN(C)CCN(Cc1cccs1)c1ccccn1 [Methapyrilene hydrochloride],scaled lipid accumulation score,,inactive: 0.366
same,scaled lipid accumulation score,library stock concentration: 6.7 mM,inactive: 0.068
same,scaled lipid accumulation score,[5],inactive: 0.38 and inactive: 0.249
COc1c(O[C@@H]2O[C@H](CO)[C@@H](O)[C@H](O)[C@H]2O)cc2c(c1OC)-c1ccc(SC)c(=O)cc1[C@@H](NC(C)=O)CC2 [Thiocolchicoside],scaled lipid accumulation score,,inactive: 0.025
CCCCCCCCCCCCCCCCCCCCCCCCC(=O)OC [Pentacosanoic Acid methyl ester],scaled lipid accumulation score,[6],inactive: ≤ 0
CC(=O)c1ccc2c(c1)N(CCCN(C)C)c1ccccc1S2.O=C(O)/C=C\C(=O)O [Acepromazine maleate],scaled lipid accumulation score,[5],active: 0.989
CN1CCC(=C2c3ccccc3CC(=O)c3sccc32)CC1.O=C(O)/C=C/C(=O)O [Ketotifen fumarate],scaled lipid accumulation score,[5],active: 0.913
NC(CO)(CO)CO [Trometamol],scaled lipid accumulation score,[4],inactive: ≤ 0
same,scaled lipid accumulation score,[5],inactive: ≤ -0.001
CCCCCCCCCCCCCC=CC(O)C(COP(=O)(O)O)NC(=O)CCCCCCC (centres undefined) [C-8 Ceramide-1-phosphate],scaled lipid accumulation score,[6],inactive: ≤ 0
COc1ccccc1CNC1CCCNC1c1ccccc1 (centres undefined),scaled lipid accumulation score,[5],inactive: 0.474
N#Cc1ccccc1OCC(O)CNCCNC(=O)Nc1ccccc1 (centres undefined),scaled lipid accumulation score,[5],inactive: 0.135
Clc1ccc(C(Cn2ccnc2)OCc2c(Cl)cccc2Cl)c(Cl)c1 (centres undefined) [Isoconazole nitrate],scaled lipid accumulation score,[4],inactive: 0.019
same,scaled lipid accumulation score,[5],inactive: 0.233
Clc1ccc(C(Cn2ccnc2)OCc2c(Cl)cccc2Cl)c(Cl)c1 (centres undefined) [Isoconazole],scaled lipid accumulation score,,inactive: ≤ 0
